{"source": "PubChem BioAssay (Tox21)", "key": {"[1]": {"experiment": "qHTS assay for identifying genotoxic compounds that show differential cytotoxicity against isogenic chicken DT40 cell lines with known DNA damage response pathways - wild type cell line (AID 743012); further: nearly all actives have a fitted effect of over 60% in size", "conditions": "DT40 wild type chicken cells viability, CellTiter-Glo, 40 h; activity change, negative = cytotoxicity: at 68.4 µM (top of the series) unless noted", "procedure,_shortened": "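Cytotoxicity in repair-proficient parental chicken DT40 cells serves as the comparator for Rad54/Ku70- and Rev3-deficient lines. Cells were exposed to compounds for 40 h at 37 C/5% CO2, and ATP-based luminescence (CellTiter-Glo) measured viability.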"}, "[2]": {"experiment": "qHTS assay for identifying genotoxic compounds that show differential cytotoxicity against isogenic chicken DT40 cell lines with known DNA damage response pathways - Rad54/Ku70 mutant cell line (AID 743015); further: nearly all actives have a fitted effect of over 60% in size", "conditions": "DT40 Rad54/Ku70 mutant viability, CellTiter-Glo, 40 h; activity change, negative = cytotoxicity: at 66.8 µM (top of the series)"}, "[3]": {"experiment": "qHTS assay for identifying genotoxic compounds that show differential cytotoxicity against isogenic chicken DT40 cell lines with known DNA damage response pathways - Rev3 mutant cell line (AID 743014); further: nearly all actives have a fitted effect of over 55% in size", "conditions": "chicken DT40 Rev3-/- viability, CellTiter-Glo, 40 h; activity, negative = cytotoxicity: at 68.4 µM (top of the series) unless noted"}, "[4]": {"experiment": "qHTS assay to identify small molecule antagonists of the androgen receptor (AR) signaling pathway - cell viability counter screen (AID 743033; further: nearly all actives have a fitted effect of over 45% in size)", "conditions": "AR-bla HEK293 viability, CellTiter-Glo luminescence, 16 h; activity change, negative = cytotoxicity: at 58.5 µM (top of the series) unless noted"}, "[5]": {"target": "Androgen receptor (Homo sapiens) (UniProt P10275)", "sequence (P10275 whole entry, looked up)": "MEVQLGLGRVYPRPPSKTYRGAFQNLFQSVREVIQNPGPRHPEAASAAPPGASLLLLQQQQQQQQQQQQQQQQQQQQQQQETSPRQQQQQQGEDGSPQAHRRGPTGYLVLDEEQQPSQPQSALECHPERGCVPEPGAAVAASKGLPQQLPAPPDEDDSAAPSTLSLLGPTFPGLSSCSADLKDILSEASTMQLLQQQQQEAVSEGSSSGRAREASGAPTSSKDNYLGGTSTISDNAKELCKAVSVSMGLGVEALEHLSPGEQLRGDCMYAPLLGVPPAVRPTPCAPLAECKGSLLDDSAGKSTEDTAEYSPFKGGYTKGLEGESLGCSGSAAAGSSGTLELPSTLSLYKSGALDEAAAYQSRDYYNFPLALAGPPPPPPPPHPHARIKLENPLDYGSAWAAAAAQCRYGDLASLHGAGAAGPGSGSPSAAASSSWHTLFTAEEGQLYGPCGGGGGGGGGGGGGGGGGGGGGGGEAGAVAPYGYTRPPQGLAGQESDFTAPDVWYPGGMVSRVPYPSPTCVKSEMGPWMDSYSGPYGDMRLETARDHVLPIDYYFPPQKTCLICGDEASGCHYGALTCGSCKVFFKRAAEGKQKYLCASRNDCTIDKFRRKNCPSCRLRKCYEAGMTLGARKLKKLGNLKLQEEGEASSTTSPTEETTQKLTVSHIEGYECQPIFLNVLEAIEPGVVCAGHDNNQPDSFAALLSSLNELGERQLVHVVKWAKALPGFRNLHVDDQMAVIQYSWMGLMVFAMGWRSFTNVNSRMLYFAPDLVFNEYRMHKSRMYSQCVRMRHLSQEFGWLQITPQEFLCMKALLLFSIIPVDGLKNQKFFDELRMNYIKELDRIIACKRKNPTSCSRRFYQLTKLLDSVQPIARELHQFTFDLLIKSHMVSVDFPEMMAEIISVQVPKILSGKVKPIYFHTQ", "experiment": "qHTS assay to identify small molecule antagonists of the androgen receptor (AR) signaling pathway (AID 743035; active means well fitted inhibition curve with a large enough effect in the signal ratio in the repeat runs, not every such curve was filed as active; inconclusive means weak or mixed curves, or effect the other way; inactive means no such curve, though single readings can be large or run the other way; the % refers to the signal ratio)", "conditions": "HEK293 AR-UAS-bla, R1881-stimulated, beta-lactamase FRET, 16 h; activity change, negative = inhibition: at 58.5 µM (top of the series) unless noted", "procedure,_shortened": "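Steps: seed AR-UAS-bla GripTite HEK293 cells, incubate 4 h at 37C; pin in test compound, then add agonist R1881; incubate 16 h at 37C; add LiveBLAzer B/G FRET substrate, 2 h at room temperature; read fluorescence.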"}}, "note": "Values joined by “and” are separate entries in the source; they are usually repeats but may differ in a detail not shown here. Equal values may be shown once. The shares of active, inactive and inconclusive entries below differ from those in the screen. Where the call is inconclusive, the potency comes from a doubtful curve fit. Active and inactive are the calls of the source. Unless noted, the call rests on the fitted dose curve; in most records, active means well fitted curve in the direction sought with a large enough effect in the repeat runs; inconclusive means weak or mixed curves; inactive means no such curve, though single readings can be large; an effect the other way counts as inactive or inconclusive. On the % scale 0 is the no-effect control and ±100 the full control effect; potency means the concentration at half of the fitted maximal effect; tags describe the fitted curve by direction and shape.", "data": [{"smiles": "CCCCNC(=O)NCCCC", "values": [{"measurement": "Potency", "setting": "[1]", "value": "inactive"}, {"measurement": "Potency", "setting": "[2]", "value": "inactive"}]}, {"smiles": "COc1cc2nc(N3CCN(C(=O)C4COc5ccccc5O4)CC3)nc(N)c2cc1OC", "note": "(configuration not stated)", "values": [{"measurement": "Potency", "setting": "[1]", "value": "inconclusive: 29.8 µM [cytotoxic, partial curve]"}, {"measurement": "Potency", "setting": "[2]", "value": "inconclusive: 33.5 µM [cytotoxic]"}]}, {"smiles": "C/C=C/c1ccc(OC)cc1", "values": [{"measurement": "Potency", "setting": "[1]", "value": "inconclusive: 1.11 µM [rising, partial curve]"}, {"measurement": "Potency", "setting": "[3]", "value": "inconclusive: 0.0306 µM [cytotoxic, full curve, poor fit]"}, {"measurement": "Potency", "setting": "[4]", "value": "inconclusive: 0.0014 µM [rising, full curve, poor fit]"}]}, {"smiles": "CCCCOC(=O)COc1ccc(Cl)cc1Cl", "values": [{"measurement": "Potency", "setting": "[1]", "value": "inconclusive: 12.3 µM [rising, full curve, poor fit]"}, {"measurement": "Potency", "setting": "[2]", "value": "inactive"}]}, {"smiles": "CC(C)NC[C@@H](O)COc1cccc2ccccc12", "values": [{"measurement": "Potency", "setting": "[1]", "value": "active: 26.6 µM"}, {"measurement": "Potency", "setting": "[3]", "value": "inconclusive: 29.8 µM [cytotoxic, partial curve]"}, {"measurement": "Potency", "setting": "[2]", "value": "inconclusive: 29.8 µM [cytotoxic]"}, {"measurement": "Potency", "setting": "[4]", "value": "inconclusive: 0.239 µM [cytotoxic, full curve, poor fit]"}]}, {"smiles": "C#CC(C)N(C)C(=O)Nc1ccc(Cl)cc1", "note": "(configuration not stated)", "values": [{"measurement": "Potency", "setting": "[1]", "value": "inconclusive: 68.5 µM [cytotoxic, single point]"}, {"measurement": "Potency", "setting": "[3]", "value": "inconclusive: 34.3 µM [cytotoxic, partial curve]"}, {"measurement": "Potency", "setting": "[2]", "value": "inconclusive: 68.5 µM [cytotoxic, single point]"}, {"measurement": "Potency", "setting": "[5]", "value": "inconclusive: 48.9 µM [falling, partial curve]"}]}, {"smiles": "CN(C)CCN(Cc1ccc(Cl)cc1)c1ccccn1", "values": [{"measurement": "Potency", "setting": "[1]", "value": "active: 12.7 µM"}, {"measurement": "Potency", "setting": "[3]", "value": "inconclusive: 12.7 µM [cytotoxic, single point]"}, {"measurement": "Potency", "setting": "[2]", "value": "inconclusive: 14.3 µM [cytotoxic, single point]"}]}, {"smiles": "CC1=C(C)S(=O)(=O)CCS1(=O)=O", "values": [{"measurement": "Potency", "setting": "[1]", "value": "inconclusive: 75.6 µM [cytotoxic, single point] and inconclusive: 68.6 µM [cytotoxic]"}, {"measurement": "Potency", "setting": "[3]", "value": "inconclusive: 67.3 µM [cytotoxic, single point]"}, {"measurement": "Potency", "setting": "[2]", "value": "active: 60 µM and active: 61.1 µM"}, {"measurement": "Potency", "setting": "[5]", "value": "inactive"}]}, {"smiles": "O=C(O)Cc1cccc(-c2cc(CCCCCCc3ccc(O[C@H]4O[C@H](CO)[C@@H](O)[C@H](O)[C@@H]4O)c(-c4cccc(CC(=O)O)c4)c3)ccc2O[C@H]2O[C@H](CO)[C@@H](O)[C@H](O)[C@@H]2O)c1", "values": [{"measurement": "Potency", "setting": "[1]", "value": "inactive"}, {"measurement": "Potency", "setting": "[3]", "value": "inactive"}, {"measurement": "Potency", "setting": "[4]", "value": "inconclusive: 30.1 µM [cytotoxic, single point]"}]}, {"smiles": "C=CCSSCCC", "values": [{"measurement": "Potency", "setting": "[1]", "value": "inconclusive: 0.684 µM [rising, partial curve, poor fit]"}, {"measurement": "Potency", "setting": "[3]", "value": "inactive"}, {"measurement": "Potency", "setting": "[4]", "value": "inactive"}]}, {"smiles": "CC(C)c1nnc2ccc(-c3ocnc3-c3cc(F)ccc3F)cn12", "values": [{"measurement": "Potency", "setting": "[1]", "value": "active: 27.3 µM"}, {"measurement": "Potency", "setting": "[3]", "value": "active: 21.7 µM"}, {"measurement": "Potency", "setting": "[4]", "value": "inconclusive: 61.6 µM [cytotoxic, partial curve, poor fit]"}]}, {"smiles": "COc1cc2c(cc1OC)[C@@H]1CC(=O)[C@@H](CC(C)C)CN1CC2", "values": [{"measurement": "Potency", "setting": "[3]", "value": "active: 21.1 µM"}]}, {"smiles": "CCCCCCCCCCCC(=O)OC[C@@H](O)[C@H]1OC[C@H](OCCO)[C@H]1OCCO", "values": [{"measurement": "Potency", "setting": "[1]", "value": "inconclusive: 66.9 µM [cytotoxic, single point]"}, {"measurement": "Potency", "setting": "[2]", "value": "inconclusive: 66.9 µM [cytotoxic, single point]"}, {"measurement": "Potency", "setting": "[4]", "value": "inconclusive: 9.54 µM [cytotoxic, partial curve, poor fit]"}]}, {"smiles": "COc1cc(C=O)ccc1OC(=O)C(C)C", "values": [{"measurement": "Potency", "setting": "[3]", "value": "inactive"}]}, {"smiles": "C[Si](C)O[Si](C)(C)O[Si](C)(C)O[Si](C)C", "values": [{"measurement": "Potency", "setting": "[1]", "value": "inactive"}, {"measurement": "Potency", "setting": "[2]", "value": "inactive"}]}, {"smiles": "CCCCCCCCCCCCc1ccccc1", "values": [{"measurement": "Potency", "setting": "[1]", "value": "inactive"}, {"measurement": "Potency", "setting": "[2]", "value": "inactive"}]}, {"smiles": "O=C(O)c1ccc2c(c1)nc(C(=O)NC1CCN(C3CC3)CC1)n2Cc1cc(-c2ccc(Cl)s2)on1", "values": [{"measurement": "Potency", "setting": "[1]", "value": "inconclusive: 15.6 µM [cytotoxic, single point]"}, {"measurement": "Potency", "setting": "[2]", "value": "inconclusive: 12.4 µM [cytotoxic]"}]}, {"smiles": "Cc1cc2nc(N)sc2cc1C", "values": [{"measurement": "Potency", "setting": "[1]", "value": "active: 61.7 µM"}, {"measurement": "Potency", "setting": "[2]", "value": "inconclusive: 69.2 µM [cytotoxic, single point]"}, {"measurement": "Potency", "setting": "[5]", "value": "inconclusive: 12.4 µM [rising, full curve, poor fit]"}]}, {"smiles": "CC(=O)/C=C/C1C(C)=CCCC1(C)C", "note": "(configuration not stated)", "values": [{"measurement": "activity change, negative = cytotoxicity", "setting": "[1]", "value": "inconclusive: 7.06%"}, {"measurement": "Potency", "setting": "[4]", "value": "inconclusive: 0.275 µM [cytotoxic, full curve, poor fit]"}]}, {"smiles": "CCC(=O)OC(C)(C)C1CC=C(C)CC1", "note": "(configuration not stated)", "values": [{"measurement": "Potency", "setting": "[1]", "value": "inconclusive: 68.6 µM [cytotoxic, single point]"}, {"measurement": "Potency", "setting": "[2]", "value": "inconclusive: 68.6 µM [cytotoxic]"}]}, {"smiles": "CCN1CCC[C@H]1CNC(=O)c1c(OC)ccc(Br)c1OC", "values": [{"measurement": "Potency", "setting": "[3]", "value": "inconclusive: 33.5 µM [rising, partial curve, poor fit]"}]}]}
